SMILES strings stand for the structures. Out of some 39,000 compounds screened, about 220 (0.56%) showed activity. Some of the results follow.
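Also: static incubation at 37 °C against the wild-type strain, values averaged over two biological replicates.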

The test system of this experiment is Escherichia coli K-12 BW25113. The experiment in a line: relative growth (OD600 normalised to plate interquartile mean) (fraction); higher = less growth inhibition, active = 0.2 or less. Conditions: 50 µM; LB; incubation time: overnight (16-24 h).
Regarding `CCC=C(C(=O)NC1C(=O)N2C(C(=O)OCOC(=O)C(C)(C)C)=C(COC(N)=O)CSC12)c1csc(N)n1.Cl` (stereo unspecified), the relative growth is active: 0.0724. The value for `C[C@H](CO)N1C[C@H](C)[C@H](CN(C)S(=O)(=O)c2cccs2)Oc2ccc(NS(=O)(=O)c3cccs3)cc2C1=O` was inactive: 1.01. With `C[C@H]1CN([C@@H](C)CO)C(=O)Cc2cc(NS(=O)(=O)c3ccccc3)ccc2O[C@@H]1CN(C)Cc1ccc(C(=O)O)cc1`, the relative growth is inactive: 0.987. In the case of `C[C@H](CO)N1C[C@H](C)[C@H](CN(C)Cc2ccncc2)Oc2ccc(NC(=O)Nc3cccc4ccccc34)cc2C1=O`, the relative growth was inactive: 0.982. For `CN1C(=O)c2cc(NC(=O)c3cccs3)ccc2OC[C@@H]2O[C@H](CC(=O)NCC(F)(F)F)CC[C@@H]21` the value was inactive: 0.999. `C=CC[C@@H](CC(=O)N(CCO)Cc1ccccc1)C(=O)NCCOC(=O)[C@H](CC=C)CC(=O)OC(C)(C)C`: the relative growth is inactive: 0.984.

As to `COc1cc(OC)cc(C(=O)OCCN2CCN(CCOC(=O)c3cc(OC)cc(OC)c3)CC2)c1`, the relative growth is inactive: 0.958. The value for `C[C@H](CO)N1C[C@H](C)[C@H](CN(C)S(=O)(=O)c2ccccc2)OCCCC[C@H](C)Oc2ccc(NC(=O)c3ccccc3)cc2C1=O` was inactive: 1.03. The value for `CN(C)CCCNC(=O)C[C@@H]1CC[C@@H]2[C@H](COc3ccc(NC(=O)c4cccc(F)c4)cc3C(=O)N2C)O1` was inactive: 0.941; that for `C[C@H]1CN([C@@H](C)CO)S(=O)(=O)c2ccc(C#CCC3CCCC3)cc2O[C@@H]1CN(C)C(=O)CN(C)C` was inactive: 0.989. The value for `Brc1ccc(-c2ccc(C3CCCCC3)cn2)cc1` was inactive: 1.02.

On to `Cc1noc(C)c1S(=O)(=O)Nc1ccc2c(c1)C(=O)N([C@@H](C)CO)C[C@@H](C)[C@@H](CN(C)C(=O)Nc1cccc3ccccc13)OCCCC[C@H](C)O2`, for which the relative growth was inactive: 1.02.

Take `C[C@@H]1CN([C@H](C)CO)C(=O)c2cc(NS(=O)(=O)c3cccs3)ccc2O[C@@H]1CN(C)Cc1ccc(-c2ccccc2)cc1`: the relative growth was inactive: 1.04. For `C[C@@H]1CCCCO[C@@H](CN(C)S(=O)(=O)c2ccc(F)cc2)[C@@H](C)CN([C@@H](C)CO)C(=O)c2cc(NC(=O)CCC(F)(F)F)ccc2O1` the value was inactive: 0.975. Take `Cc1ccc(S(=O)(=O)Nc2ccc3c(c2)CC(=O)N([C@H](C)CO)C[C@H](C)[C@H](CN(C)S(C)(=O)=O)O3)cc1`: the relative growth was inactive: 1.02.

Consider `CN1C[C@@H]2CN(C(=O)c3ccnn3C)C[C@H]2C1=O`, for which the relative growth was inactive: 1.02. Consider `Cc1noc(C)c1NC(=O)Nc1ccc2c(c1)CC(=O)N([C@@H](C)CO)C[C@@H](C)[C@H](CN(C)S(=O)(=O)c1c(C)noc1C)O2`, for which the relative growth was inactive: 0.992. For `CO[C@@H]1CN(C)C(=O)c2cc(NC(=O)C3CC3)ccc2OC[C@@H](C)N(C(=O)CN2CCOCC2)C[C@H]1C` the value was inactive: 1.02. As to `COc1ccc2c(c1)OCC(Cc1ccc(O)c(OC)c1)C2=O` (stereo unspecified), the relative growth was inactive: 1.05. For the compound `C[C@@H]1CN([C@H](C)CO)C(=O)Cc2cc(NC(=O)Nc3cccc4ccccc34)ccc2O[C@H]1CN(C)C(=O)Nc1ccccc1`, the relative growth was inactive: 1.

Take `Nc1ccc(C(=O)O)cc1`: the relative growth was inactive: 0.922. The value for `Cc1noc(C)c1NC(=O)N(C)C[C@H]1Oc2ccc(NC(=O)NC(C)C)cc2CC(=O)N([C@@H](C)CO)C[C@@H]1C` was inactive: 1.01. In the case of `NC(=O)[C@H]1Cc2ccccc2N1`, the relative growth was inactive: 0.985. In the case of `C[C@H](CO)N1C[C@H](C)[C@@H](CN(C)S(=O)(=O)c2ccc(F)cc2)OCCCC[C@H](C)Oc2ccc(NS(=O)(=O)c3ccc(Cl)cc3)cc2C1=O`, the relative growth is inactive: 1.01. For `C[C@H](CO)N1C[C@H](C)[C@H](CN(C)Cc2ccc(Cl)c(Cl)c2)OCCCC[C@H](C)Oc2ccc(NC(=O)NC3CCCCC3)cc2C1=O` the value was inactive: 1.03.

Consider `Cc1ccc(S(=O)(=O)N[C@@H]2CC[C@H](CCNC(=O)CN3CCOCC3)O[C@H]2CO)cc1`, for which the relative growth was inactive: 1.02. `C[C@@H]1CCCCO[C@@H](CN(C)C(=O)Nc2ccc(C(F)(F)F)cc2)[C@H](C)CN([C@H](C)CO)C(=O)c2cc(NC(=O)Nc3ccccc3)ccc2O1`: the relative growth was inactive: 1.03. The value for `Cc1noc(C)c1NC(=O)Nc1ccc2c(c1)C(=O)N([C@H](C)CO)C[C@@H](C)[C@H](CN(C)S(=O)(=O)c1ccccc1)OCCCC[C@@H](C)O2` was inactive: 0.986; that for `Cc1ccc(S(=O)(=O)Nc2ccc3c(c2)C(=O)N([C@@H](C)CO)C[C@@H](C)[C@@H](CN(C)S(C)(=O)=O)O3)cc1` was inactive: 0.899; that for `C[C@@H]1CN([C@@H](C)CO)C(=O)c2cc(NC(=O)CCCCCC(=O)Nc3ccccc3N)ccc2O[C@@H]1CN(C)C(=O)Nc1ccc(F)cc1` was inactive: 1.01. The value for `Cc1cc(=O)n2nc(C(=O)O)nc2[nH]1` was inactive: 0.991; that for `C=CC[C@@H](CC(=O)NCCO)C(=O)N[C@H](COC(=O)[C@@H](CC=C)CC(=O)OC(C)(C)C)Cc1ccccc1` was inactive: 0.849. With `C[C@H]1CN([C@@H](C)CO)C(=O)c2cc(N(C)C)ccc2O[C@H]1CN(C)S(C)(=O)=O`, the relative growth is inactive: 0.993. On to `O=C(C[C@H]1C=C[C@H](NC(=O)c2cnccn2)[C@H](CO)O1)NCc1ccccc1F`, for which the relative growth was inactive: 1.03.

Regarding `COc1ccc(NC(=O)N(C)C[C@H]2Oc3c(NC(=O)Nc4ccc(C(F)(F)F)cc4)cccc3C(=O)N([C@@H](C)CO)C[C@H]2C)cc1`, the relative growth is inactive: 1.02.

Turning to `C[C@@H]1CCCCO[C@@H](CN(C)CC2CCCCC2)[C@H](C)CN([C@@H](C)CO)C(=O)c2cc(NC(=O)Nc3ccccc3)ccc2O1`, the relative growth is inactive: 0.925. `COc1cccc(C#Cc2ccc3c(c2)O[C@@H](CN(C)C(=O)CN2CCOCC2)[C@@H](C)CN([C@H](C)CO)S3(=O)=O)c1`: the relative growth was inactive: 0.995.

Regarding `O=C(CCCCCNC(=O)OCc1ccc(CO[C@H]2C[C@@H](c3ccc4c(c3)OCO4)C=C(C(=O)N3CCOCC3)O2)cc1)NO`, the relative growth was inactive: 0.979.

For `COc1ccc(NC(=O)Nc2ccc3c(c2)C(=O)N([C@H](C)CO)C[C@H](C)[C@H](CN(C)C(=O)Nc2ccccc2)OCCCC[C@H](C)O3)cc1`, the relative growth is inactive: 1.05. In the case of `c1cc(CCN2CCNCC2)ccn1`, the relative growth was inactive: 1.02. The value for `C[C@@H]1CN([C@@H](C)CO)C(=O)Cc2cc(NS(C)(=O)=O)ccc2O[C@H]1CN(C)Cc1ccc(C(=O)O)cc1` was inactive: 1.01; that for `CO[C@H](CN(C)S(=O)(=O)c1ccc(Cl)cc1)[C@H](C)CN([C@@H](C)CO)S(=O)(=O)c1cccc(Cl)c1` was inactive: 1.01. Take `C[C@@H]1CCCCO[C@@H](CN(C)C(=O)CCC(F)(F)F)[C@@H](C)CN([C@H](C)CO)C(=O)c2cc(NC(=O)Nc3ccc4c(c3)OCO4)ccc2O1`: the relative growth was inactive: 0.99. Regarding `C[C@@H]1CN([C@@H](C)CO)C(=O)c2c(c3ccccc3n2C)-c2ccccc2CO[C@H]1CN(C)C(=O)CCC(F)(F)F`, the relative growth was inactive: 0.975. For `C[C@@H]1CN([C@@H](C)CO)S(=O)(=O)c2ccc(-c3cncnc3)cc2O[C@@H]1CN(C)C(=O)c1cccc(F)c1` the value was inactive: 0.966.

Turning to `C[C@H](CO)N1C[C@H](C)[C@@H](CN(C)Cc2ccccc2)Oc2c(NC(=O)Nc3ccc(C(F)(F)F)cc3)cccc2C1=O`, the relative growth is inactive: 0.77. On to `CC(=O)N1CCn2nncc2C[C@@]1(C)C1CC1`, for which the relative growth is inactive: 0.965. For `COc1ccc(NC(=O)N(C)C[C@@H]2OCCCC[C@@H](C)Oc3ccc(NC(=O)C4CCCCC4)cc3C(=O)N([C@H](C)CO)C[C@@H]2C)cc1`, the relative growth is inactive: 1.03. As to `CCOc1ccn(-c2ccc(F)cc2)c(=O)c1C(=O)Nc1ccc(Oc2ccnc(N)c2Cl)c(F)c1`, the relative growth was inactive: 1.01. Take `C[C@@H]1CN([C@@H](C)CO)S(=O)(=O)c2ccc(-c3ccncc3)cc2O[C@H]1CN(C)Cc1ccc(Oc2ccccc2)cc1`: the relative growth was inactive: 0.995. On to `CN1C(=O)c2cc(NC(=O)c3cscn3)ccc2OC[C@H]2O[C@@H](CC(=O)N3CCOCC3)CC[C@H]21`, for which the relative growth is inactive: 0.996. On to `O=C(C[C@@H]1CC[C@@H](NS(=O)(=O)c2ccccc2F)[C@@H](CO)O1)NCCCN1CCOCC1`, for which the relative growth is inactive: 1.05. For `C[C@H](CO)N1C[C@H](C)[C@@H](CN(C)C(=O)Nc2ccc(F)cc2)Oc2ccc(NC(=O)C3CC3)cc2CC1=O`, the relative growth was inactive: 0.979. On to `COc1ccc(CN(C)C[C@H]2OCCCC[C@@H](C)Oc3ccc(NS(=O)(=O)c4ccc(OC)cc4)cc3C(=O)N([C@H](C)CO)C[C@@H]2C)cc1`, for which the relative growth is inactive: 0.984. As to `C#CCCCCCCCCCCC[C@H](O)C[C@H](O)CO.C=CCCCCCCCCCCC[C@H](O)C[C@H](O)CO`, the relative growth is inactive: 0.97. Consider `O=C(CN1CCCN(CC(=O)CN2C(=O)c3ccccc3C2=O)CC1)CN1C(=O)c2ccccc2C1=O`, for which the relative growth is inactive: 0.995.

For the compound `CC(C)CC#Cc1ccc2c(c1)O[C@H](CN(C)C(=O)c1cccnc1)[C@@H](C)CN([C@@H](C)CO)S2(=O)=O`, the relative growth is inactive: 1.

Take `COc1ccccc1S(=O)(=O)N(C)C[C@H]1Oc2cc(Br)ccc2S(=O)(=O)N([C@@H](C)CO)C[C@H]1C`: the relative growth is inactive: 1.01.

As for `C[C@@H]1CN([C@H](C)CO)C(=O)c2cc(NC(=O)C3CCCCC3)ccc2O[C@@H](C)CCCCO[C@H]1CN(C)C(=O)NC1CCCCC1`, the relative growth was inactive: 1.03. The value for `C[C@@H]1CN([C@H](C)CO)C(=O)c2cc(NC(=O)Nc3ccc(C(F)(F)F)cc3)ccc2O[C@@H](C)CCCCO[C@@H]1CN(C)S(=O)(=O)c1ccccc1` was inactive: 0.996; that for `C[C@H](CO)N1C[C@H](C)[C@H](CN(C)C(=O)Nc2ccccc2)Oc2ccc(NC(=O)Nc3ccc(C(F)(F)F)cc3)cc2CC1=O` was inactive: 1.01.
